Results from US6660835B1, “Lead substances and their use as therapeutics” (priority 1998, dated 2003).

System: agr system of S. aureus
Details: S. aureus Newman; 0.05 to 1 μM; after 8 h of growth

Substance: SVc[CASYF]: S. epidermidis pheromone lacking the original aspartate residue at the N-terminus (SVXASYF; thiolactone cyclisation; VARIANT (3) C-terminal cyclyzed through thioester linkage to cystine residue 3; listed as Staphylococcus epidermidis)
- suppression of delta-toxin production: suppress the synthesis of delta-toxin
